Results: the supplement of paper PMC8728848
The list shows a part of the results.

Columns and labels:
Assay in all cases: glycan array binding signal (z-score within array); higher = stronger binding
Conditions in all cases: glycan notation: IUPAC condensed, linker removed
Glc(a1-4)Glc = molecular target: Glc(a1-4)Glc
Outline: (§1)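 The Consortium for Functional Glycomics database supplied 3228 glycan arrays, of which those lacking an available protein sequence were dropped. The binding signal, a within-array Z-score, was averaged across arrays of the same protein sequence and across linkers. Negative scores can be read as non-binding.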

[1] = molecular target: Glc(a1-4)Glc(a1-4)Glc(a1-4)Glc
Outline: as §1

Glc(a1-6)Glc(a1-6)Glc = molecular target: Glc(a1-6)Glc(a1-6)Glc
Outline: as §1

[2] = molecular target: Glc(a1-6)Glc(a1-6)Glc(a1-6)Glc
Outline: as §1

Glc(b1-4)Glc = molecular target: Glc(b1-4)Glc
Outline: as §1

Glc(b1-6)Glc = molecular target: Glc(b1-6)Glc
Outline: as §1

GlcA(b1-3)Gal = molecular target: GlcA(b1-3)Gal
Outline: as §1

GlcA(b1-3)GlcNAc = molecular target: GlcA(b1-3)GlcNAc
Outline: as §1

GlcA(b1-6)Gal = molecular target: GlcA(b1-6)Gal
Outline: as §1

[3] = molecular target: GlcA3S(b1-3)Gal(b1-4)GlcNAc(b1-2)Man
Outline: as §1

[4] = molecular target: GlcA3S(b1-3)Gal(b1-4)GlcNAc(b1-3)Gal(b1-4)Glc
Outline: as §1

[5] = molecular target: GlcNAc(a1-3)Gal(b1-4)GlcNAc
Outline: as §1

[6] = molecular target: GlcNAc(a1-4)Gal(b1-3)GlcNAc
Outline: as §1

[7] = molecular target: GlcNAc(a1-4)Gal(b1-4)GalNAc
Outline: as §1

[8] = molecular target: GlcNAc(a1-4)Gal(b1-4)GlcNAc
Outline: as §1

[9] = molecular target: GlcNAc(a1-4)Gal(b1-4)GlcNAc(b1-3)Gal(b1-4)Glc
Outline: as §1

[10] = molecular target: GlcNAc(a1-4)Gal(b1-4)GlcNAc(b1-3)Gal(b1-4)GlcNAc
Outline: as §1

[11] = molecular target: GlcNAc(a1-4)Gal(b1-4)GlcNAc(b1-3)Gal(b1-4)GlcNAc(b1-3)Gal(b1-4)GlcNAc
Outline: as §1

[12] = molecular target: GlcNAc(a1-4)Gal(b1-4)GlcNAc(b1-3)Gal(b1-4)[Fuc(a1-3)]GlcNAc(b1-3)Gal(b1-4)[Fuc(a1-3)]GlcNAc
Outline: as §1

[13] = molecular target: GlcNAc(a1-6)Gal(b1-4)GlcNAc
Outline: as §1

[14] = molecular target: GlcNAc(b1-2)Gal(b1-3)GalNAc
Outline: as §1

[15] = molecular target: GlcNAc(b1-2)Man(a1-3)[GlcNAc(b1-2)Man(a1-6)]Man(b1-4)GlcNAc(b1-4)GlcNAc
Outline: as §1

[16] = molecular target: GlcNAc(b1-2)Man(a1-3)[GlcNAc(b1-2)Man(a1-6)]Man(b1-4)GlcNAc(b1-4)[Fuc(a1-6)]GlcNAc
Outline: as §1

[17] = molecular target: GlcNAc(b1-2)Man(a1-3)[GlcNAc(b1-4)][GlcNAc(b1-2)Man(a1-6)]Man(b1-4)GlcNAc(b1-4)GlcNAc
Outline: as §1

[18] = molecular target: GlcNAc(b1-2)Man(a1-3)[GlcNAc(b1-4)][GlcNAc(b1-2)Man(a1-6)]Man(b1-4)GlcNAc(b1-4)[Fuc(a1-6)]GlcNAc
Outline: as §1

[19] = molecular target: GlcNAc(b1-2)[GlcNAc(b1-4)]Man(a1-3)[GlcNAc(b1-2)Man(a1-6)]Man(b1-4)GlcNAc(b1-4)GlcNAc
Outline: as §1

[20] = molecular target: GlcNAc(b1-2)[GlcNAc(b1-4)]Man(a1-3)[GlcNAc(b1-4)][GlcNAc(b1-2)Man(a1-6)]Man(b1-4)GlcNAc(b1-4)GlcNAc
Outline: as §1

[21] = molecular target: GlcNAc(b1-2)[GlcNAc(b1-4)]Man(a1-3)[GlcNAc(b1-4)][GlcNAc(b1-2)[GlcNAc(b1-6)]Man(a1-6)]Man(b1-4)GlcNAc(b1-4)GlcNAc
Outline: as §1

[22] = molecular target: GlcNAc(b1-2)[GlcNAc(b1-4)]Man(a1-3)[GlcNAc(b1-4)][GlcNAc(b1-2)[GlcNAc(b1-6)]Man(a1-6)]Man(b1-4)GlcNAc(b1-4)[Fuc(a1-6)]GlcNAc
Outline: as §1

[23] = molecular target: GlcNAc(b1-2)[GlcNAc(b1-6)]Man(a1-6)[GlcNAc(b1-2)Man(a1-3)]Man(b1-4)GlcNAc(b1-4)GlcNAc
Outline: as §1

[24] = molecular target: GlcNAc(b1-2)[GlcNAc(b1-6)]Man(a1-6)[GlcNAc(b1-2)Man(a1-3)]Man(b1-4)GlcNAc(b1-4)[Fuc(a1-6)]GlcNAc
Outline: as §1

[25] = molecular target: GlcNAc(b1-2)[GlcNAc(b1-6)]Man(a1-6)[GlcNAc(b1-2)Man(a1-3)][GlcNAc(b1-4)]Man(b1-4)GlcNAc(b1-4)GlcNAc
Outline: as §1

[26] = molecular target: GlcNAc(b1-2)[GlcNAc(b1-6)]Man(a1-6)[GlcNAc(b1-4)][GlcNAc(b1-2)Man(a1-3)]Man(b1-4)GlcNAc(b1-4)GlcNAc
Outline: as §1

GlcNAc(b1-3)Fuc = molecular target: GlcNAc(b1-3)Fuc
Outline: as §1

GlcNAc(b1-3)Gal = molecular target: GlcNAc(b1-3)Gal
Outline: as §1

[27] = molecular target: GlcNAc(b1-3)Gal(b1-3)GalNAc
Outline: as §1

GlcNAc(b1-3)Gal(b1-4)Glc = molecular target: GlcNAc(b1-3)Gal(b1-4)Glc
Outline: as §1

[28] = molecular target: GlcNAc(b1-3)Gal(b1-4)GlcNAc
Outline: as §1

[29] = molecular target: GlcNAc(b1-3)Gal(b1-4)GlcNAc(b1-2)Man(a1-3)[GlcNAc(b1-3)Gal(b1-4)GlcNAc(b1-2)Man(a1-6)]Man(b1-4)GlcNAc(b1-4)GlcNAc
Outline: as §1

[30] = molecular target: GlcNAc(b1-3)Gal(b1-4)GlcNAc(b1-2)Man(a1-3)[GlcNAc(b1-3)Gal(b1-4)GlcNAc(b1-2)Man(a1-6)]Man(b1-4)GlcNAc(b1-4)[Fuc(a1-6)]GlcNAc
Outline: as §1

[31] = molecular target: GlcNAc(b1-3)Gal(b1-4)GlcNAc(b1-2)[GlcNAc(b1-3)Gal(b1-4)GlcNAc(b1-6)]Man(a1-6)[GlcNAc(b1-3)Gal(b1-4)GlcNAc(b1-2)Man(a1-3)]Man(b1-4)GlcNAc(b1-4)GlcNAc
Outline: as §1

[32] = molecular target: GlcNAc(b1-3)Gal(b1-4)GlcNAc(b1-3)Gal(b1-4)GlcNAc
Outline: as §1

[33] = molecular target: GlcNAc(b1-3)Gal(b1-4)GlcNAc(b1-3)Gal(b1-4)GlcNAc(b1-2)Man(a1-3)[GlcNAc(b1-3)Gal(b1-4)GlcNAc(b1-3)Gal(b1-4)GlcNAc(b1-2)Man(a1-6)]Man(b1-4)GlcNAc(b1-4)GlcNAc
Outline: as §1

[34] = molecular target: GlcNAc(b1-3)Gal(b1-4)GlcNAc(b1-3)Gal(b1-4)GlcNAc(b1-2)Man(a1-3)[GlcNAc(b1-3)Gal(b1-4)GlcNAc(b1-3)Gal(b1-4)GlcNAc(b1-2)Man(a1-6)]Man(b1-4)GlcNAc(b1-4)[Fuc(a1-6)]GlcNAc
Outline: as §1

[35] = molecular target: GlcNAc(b1-3)Gal(b1-4)GlcNAc(b1-3)Gal(b1-4)GlcNAc(b1-2)[GlcNAc(b1-3)Gal(b1-4)GlcNAc(b1-3)Gal(b1-4)GlcNAc(b1-6)]Man(a1-6)[GlcNAc(b1-3)Gal(b1-4)GlcNAc(b1-3)Gal(b1-4)GlcNAc(b1-2)Man(a1-3)]Man(b1-4)GlcNAc(b1-4)[Fuc(a1-6)]GlcNAc
Outline: as §1

B1: Siglec-7-SA-PE-180 (Homo sapiens), Q9Y286 (protein)
chain: MLLLLLLPLLWGRERVEGQKSNRKDYSLTMQSSVTVQEGMCVHVRCSFSYPVDSQTDSDPVHGYWFRAGNDISWKAPVATNNPAWAVQEETRDRFHLLGDPQTKNCTLSIRDARMSDAGRYFFRMEKGNIKWNYKYDQLSVNVTALTHRPNILIPGTLESGCFQNLTCSVPWACEQGTPPMISWMGTSVSPLHPSTTRSSVLTLIPQPQHHGTSLTCQVTLPGAGVTTNRTIQLNVSYPPQNLTVTVFQGEGTASTALGNSSSLSVLEGQSLRLVCAVDSNPPARLSWTWRSLTLYPSQPSNPLVLELQVHLGDEGEFTCRAQNSLGSQHVSLNLSLQQEYTGKMRPVSGVLLGAVGGAGATALVFLSFCVIFIVVRSCRKKSARPAADVGDIGMKDANTIRGSASQGNLTESWADDNPRHHGLAAHSSGEEREIQYAPLSFHKGEPQDLSGQEATNNEYSEIKIPK
glycan array binding signal (z-score) (Glc(a1-4)Glc): -0.298
glycan array binding signal (z-score) [1]: 0.005
glycan array binding signal (z-score) (Glc(a1-6)Glc(a1-6)Glc): -0.077
glycan array binding signal (z-score) [2]: -0.284
glycan array binding signal (z-score) (Glc(b1-4)Glc): 0.233
glycan array binding signal (z-score) (Glc(b1-6)Glc): -0.08
glycan array binding signal (z-score) (GlcA(b1-3)Gal): 0.027
glycan array binding signal (z-score) (GlcA(b1-3)GlcNAc): -0.229
glycan array binding signal (z-score) (GlcA(b1-6)Gal): -0.205
glycan array binding signal (z-score) [3]: -0.333
glycan array binding signal (z-score) [4]: -0.241
glycan array binding signal (z-score) [5]: -0.138
glycan array binding signal (z-score) [6]: 0.337
glycan array binding signal (z-score) [7]: -0.175
glycan array binding signal (z-score) [8]: -0.219
glycan array binding signal (z-score) [9]: -0.326
glycan array binding signal (z-score) [10]: -0.387
glycan array binding signal (z-score) [11]: -0.297
glycan array binding signal (z-score) [12]: 0.22
glycan array binding signal (z-score) [13]: -0.299
glycan array binding signal (z-score) [14]: -0.03
glycan array binding signal (z-score) [15]: -0.294
glycan array binding signal (z-score) [16]: -0.172
glycan array binding signal (z-score) [17]: -0.385
glycan array binding signal (z-score) [18]: -0.618
glycan array binding signal (z-score) [19]: -0.272
glycan array binding signal (z-score) [20]: -0.191
glycan array binding signal (z-score) [21]: -0.408
glycan array binding signal (z-score) [22]: -0.13
glycan array binding signal (z-score) [23]: -0.074
glycan array binding signal (z-score) [24]: 0.01
glycan array binding signal (z-score) [25]: -0.355
glycan array binding signal (z-score) [26]: -0.312
glycan array binding signal (z-score) (GlcNAc(b1-3)Fuc): -0.311
glycan array binding signal (z-score) (GlcNAc(b1-3)Gal): -0.272
glycan array binding signal (z-score) [27]: -0.136
glycan array binding signal (z-score) (GlcNAc(b1-3)Gal(b1-4)Glc): -0.227
glycan array binding signal (z-score) [28]: -0.229
glycan array binding signal (z-score) [29]: 0.036
glycan array binding signal (z-score) [30]: 0.467
glycan array binding signal (z-score) [31]: 1.07
glycan array binding signal (z-score) [32]: -0.287
glycan array binding signal (z-score) [33]: 0.981
glycan array binding signal (z-score) [34]: 0.378
glycan array binding signal (z-score) [35]: 0.176
